How the values were obtained:
[1] = target: T1, hu IL2R beta-gamma-Fc (P1AD7029-002) (human, UniProt P14784 27-240; P31785 23-262); assay: SPR, captured via anti-human Fc, IL2Rbg-Fc analyte, 1:1 Langmuir
T1 construct: Analyte in all SPR runs; also called human IL2R beta-gamma Fc; recombinant human IL2Rbeta-gamma-Fc heterodimer; not shown: Fc part and any linker of the heterodimer
T1 sequence (looked up) 1: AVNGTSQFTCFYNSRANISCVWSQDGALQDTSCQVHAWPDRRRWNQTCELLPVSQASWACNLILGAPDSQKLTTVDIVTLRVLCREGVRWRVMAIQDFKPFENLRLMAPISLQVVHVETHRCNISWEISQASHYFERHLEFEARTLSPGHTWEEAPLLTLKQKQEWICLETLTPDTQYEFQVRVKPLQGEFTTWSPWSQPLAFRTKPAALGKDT
T1 sequence (looked up) 2: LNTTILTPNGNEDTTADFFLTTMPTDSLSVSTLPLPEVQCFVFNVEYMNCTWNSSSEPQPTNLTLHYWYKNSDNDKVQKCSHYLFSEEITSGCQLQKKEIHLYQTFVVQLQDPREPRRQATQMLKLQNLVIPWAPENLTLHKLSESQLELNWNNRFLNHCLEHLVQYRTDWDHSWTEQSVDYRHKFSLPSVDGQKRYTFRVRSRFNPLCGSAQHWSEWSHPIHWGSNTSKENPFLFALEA
Description: (§1) Bulk refractive index differences were corrected for by subtracting the response obtained on the reference flow cell 1.

[2] = target: T1, hu IL2R beta-gamma-Fc (P1AD7029-002); assay: SPR, purified, captured via anti-human Fc, IL2Rbg-Fc analyte, 1:1 Langmuir
Description: as §1

B1: FAP 4B9 IgG-huIL2v_L12A_L80A (P1AE4807) (other)
light: EIVLTQSPGTLSLSPGERATLSCRASQSVTSSYLAWYQQKPGQAPRLLINVGSRRATGIPDRFSGSGSGTDFTLTISRLEPEDFAVYYCQQGIMLPPTFGQGTKVEIKRTVAAPSVFIFPPSDEQLKSGTASVVCLLNNFYPREAKVQWKVDNALQSGNSQESVTEQDSKDSTYSLSSTLTLSKADYEKHKVYACEVTHQGLSSPVTKSFNRGEC
heavy 1: EVQLLESGGGLVQPGGSLRLSCAASGFTFSSYAMSWVRQAPGKGLEWVSAIIGSGASTYYADSVKGRFTISRDNSKNTLYLQMNSLRAEDTAVYYCAKGWFGGFNYWGQGTLVTVSSASTKGPSVFPLAPSSKSTSGGTAALGCLVKDYFPEPVTVSWNSGALTSGVHTFPAVLQSSGLYSLSSVVTVPSSSLGTQTYICNVNHKPSNTKVDKKVEPKSCDKTHTCPPCPAPEAAGGPSVFLFPPKPKDTLMISRTPEVTCVVVDVSHEDPEVKFNWYVDGVEVHNAKTKPREEQYNSTYRVVSVLTVLHQDWLNGKEYKCKVSNKALGAPIEKTISKAKGQPREPQVCTLPPSRDELTKNQVSLSCAVKGFYPSDIAVEWESNGQPENNYKTTPPVLDSDGSFFLVSKLTVDKSRWQQGNVFSCSVMHEALHNHYTQKSLSLSPGK
heavy 2: EVQLLESGGGLVQPGGSLRLSCAASGFTFSSYAMSWVRQAPGKGLEWVSAIIGSGASTYYADSVKGRFTISRDNSKNTLYLQMNSLRAEDTAVYYCAKGWFGGFNYWGQGTLVTVSSASTKGPSVFPLAPSSKSTSGGTAALGCLVKDYFPEPVTVSWNSGALTSGVHTFPAVLQSSGLYSLSSVVTVPSSSLGTQTYICNVNHKPSNTKVDKKV[human IgG1 Fc with changes not written out]GGGGSGGGGSGGGGSGGGGSGGGGSAPASSSTKKTQAQLEHLLLDLQMILNGINNYKNPKLTRMLTAKFAMPKKATELKHLQCLEEELKPLEEVLNGAQSKNFHARPRDLISNINVIVLELKGSETTFMCEYADETATIVEFLNRWITFAQSIISTLT
notes: Immunoconjugate: anti-FAP IgG1 PG LALA knob/hole, IL2v variant on the knob heavy chain; also called P1AE4807-003
Kd [1]: 0.7 nM
koff [1]: 3.24e-05 s⁻¹
kon [1]: 45600 M⁻¹ s⁻¹

B2: FAP 4B9 IgG-huIL2v_L19V (P1AE4808) (other)
light: B1 light
heavy 1: B1 heavy 1
heavy 2: EVQLLESGGGLVQPGGSLRLSCAASGFTFSSYAMSWVRQAPGKGLEWVSAIIGSGASTYYADSVKGRFTISRDNSKNTLYLQMNSLRAEDTAVYYCAKGWFGGFNYWGQGTLVTVSSASTKGPSVFPLAPSSKSTSGGTAALGCLVKDYFPEPVTVSWNSGALTSGVHTFPAVLQSSGLYSLSSVVTVPSSSLGTQTYICNVNHKPSNTKVDKKV[human IgG1 Fc with changes not written out]GGGGSGGGGSGGGGSGGGGSGGGGSAPASSSTKKTQLQLEHLLVDLQMILNGINNYKNPKLTRMLTAKFAMPKKATELKHLQCLEEELKPLEEVLNGAQSKNFHLRPRDLISNINVIVLELKGSETTFMCEYADETATIVEFLNRWITFAQSIISTLT
notes: Immunoconjugate: anti-FAP IgG1 PG LALA knob/hole, IL2v variant on the knob heavy chain; also called P1AE4808-003
Kd [1]: 0.16 nM
koff [1]: 6.78e-06 s⁻¹
kon [1]: 41900 M⁻¹ s⁻¹

B3: FAP 4B9 IgG-huIL2v_N88T (P1AE4809) (other)
light: B1 light
heavy 1: B1 heavy 1
heavy 2: EVQLLESGGGLVQPGGSLRLSCAASGFTFSSYAMSWVRQAPGKGLEWVSAIIGSGASTYYADSVKGRFTISRDNSKNTLYLQMNSLRAEDTAVYYCAKGWFGGFNYWGQGTLVTVSSASTKGPSVFPLAPSSKSTSGGTAALGCLVKDYFPEPVTVSWNSGALTSGVHTFPAVLQSSGLYSLSSVVTVPSSSLGTQTYICNVNHKPSNTKVDKKV[human IgG1 Fc with changes not written out]GGGGSGGGGSGGGGSGGGGSGGGGSAPASSSTKKTQLQLEHLLLDLQMILNGINNYKNPKLTRMLTAKFAMPKKATELKHLQCLEEELKPLEEVLNGAQSKNFHLRPRDLISTINVIVLELKGSETTFMCEYADETATIVEFLNRWITFAQSIISTLT
notes: Immunoconjugate: anti-FAP IgG1 PG LALA knob/hole, IL2v variant on the knob heavy chain; also called P1AE4809-003
Kd [1]: 50 nM
koff [1]: 0.00154 s⁻¹
kon [1]: 29600 M⁻¹ s⁻¹

B4: FAP 4B9 IgG-huIL2v_N119K (P1AE4810) (other)
light: B1 light
heavy 1: B1 heavy 1
heavy 2: EVQLLESGGGLVQPGGSLRLSCAASGFTFSSYAMSWVRQAPGKGLEWVSAIIGSGASTYYADSVKGRFTISRDNSKNTLYLQMNSLRAEDTAVYYCAKGWFGGFNYWGQGTLVTVSSASTKGPSVFPLAPSSKSTSGGTAALGCLVKDYFPEPVTVSWNSGALTSGVHTFPAVLQSSGLYSLSSVVTVPSSSLGTQTYICNVNHKPSNTKVDKKV[human IgG1 Fc with changes not written out]GGGGSGGGGSGGGGSGGGGSGGGGSAPASSSTKKTQLQLEHLLLDLQMILNGINNYKNPKLTRMLTAKFAMPKKATELKHLQCLEEELKPLEEVLNGAQSKNFHLRPRDLISNINVIVLELKGSETTFMCEYADETATIVEFLKRWITFAQSIISTLT
notes: Immunoconjugate: anti-FAP IgG1 PG LALA knob/hole, IL2v variant on the knob heavy chain; also called P1AE4810-003
Kd [1]: 0.01 nM
koff [1]: 4.07e-07 s⁻¹
kon [1]: 32400 M⁻¹ s⁻¹

B5: FAP 4B9 IgG-huIL2v_Q22A (P1AE4811) (other)
light: B1 light
heavy 1: B1 heavy 1
heavy 2: EVQLLESGGGLVQPGGSLRLSCAASGFTFSSYAMSWVRQAPGKGLEWVSAIIGSGASTYYADSVKGRFTISRDNSKNTLYLQMNSLRAEDTAVYYCAKGWFGGFNYWGQGTLVTVSSASTKGPSVFPLAPSSKSTSGGTAALGCLVKDYFPEPVTVSWNSGALTSGVHTFPAVLQSSGLYSLSSVVTVPSSSLGTQTYICNVNHKPSNTKVDKKV[human IgG1 Fc with changes not written out]GGGGSGGGGSGGGGSGGGGSGGGGSAPASSSTKKTQLQLEHLLLDLAMILNGINNYKNPKLTRMLTAKFAMPKKATELKHLQCLEEELKPLEEVLNGAQSKNFHLRPRDLISNINVIVLELKGSETTFMCEYADETATIVEFLNRWITFAQSIISTLT
notes: Immunoconjugate: anti-FAP IgG1 PG LALA knob/hole, IL2v variant on the knob heavy chain; also called P1AE4811-003
Kd [1]: 0.03 nM
koff [1]: 9.98e-07 s⁻¹
kon [1]: 34400 M⁻¹ s⁻¹

B6: FAP 4B9 IgG-huIL2v_S87A (P1AE4813) (other)
light: B1 light
heavy 1: B1 heavy 1
heavy 2: EVQLLESGGGLVQPGGSLRLSCAASGFTFSSYAMSWVRQAPGKGLEWVSAIIGSGASTYYADSVKGRFTISRDNSKNTLYLQMNSLRAEDTAVYYCAKGWFGGFNYWGQGTLVTVSSASTKGPSVFPLAPSSKSTSGGTAALGCLVKDYFPEPVTVSWNSGALTSGVHTFPAVLQSSGLYSLSSVVTVPSSSLGTQTYICNVNHKPSNTKVDKKV[human IgG1 Fc with changes not written out]GGGGSGGGGSGGGGSGGGGSGGGGSAPASSSTKKTQLQLEHLLLDLQMILNGINNYKNPKLTRMLTAKFAMPKKATELKHLQCLEEELKPLEEVLNGAQSKNFHLRPRDLIANINVIVLELKGSETTFMCEYADETATIVEFLNRWITFAQSIISTLT
notes: Immunoconjugate: anti-FAP IgG1 PG LALA knob/hole, IL2v variant on the knob heavy chain; also called P1AE4813-003
Kd [1]: 0.7 nM
koff [1]: 3.02e-05 s⁻¹
kon [1]: 40500 M⁻¹ s⁻¹

B7: FAP 4B9 IgG-huIL2v_S130A (P1AE4814) (other)
light: B1 light
heavy 1: B1 heavy 1
heavy 2: EVQLLESGGGLVQPGGSLRLSCAASGFTFSSYAMSWVRQAPGKGLEWVSAIIGSGASTYYADSVKGRFTISRDNSKNTLYLQMNSLRAEDTAVYYCAKGWFGGFNYWGQGTLVTVSSASTKGPSVFPLAPSSKSTSGGTAALGCLVKDYFPEPVTVSWNSGALTSGVHTFPAVLQSSGLYSLSSVVTVPSSSLGTQTYICNVNHKPSNTKVDKKV[human IgG1 Fc with changes not written out]GGGGSGGGGSGGGGSGGGGSGGGGSAPASSSTKKTQLQLEHLLLDLQMILNGINNYKNPKLTRMLTAKFAMPKKATELKHLQCLEEELKPLEEVLNGAQSKNFHLRPRDLISNINVIVLELKGSETTFMCEYADETATIVEFLNRWITFAQSIIATLT
notes: Immunoconjugate: anti-FAP IgG1 PG LALA knob/hole, IL2v variant on the knob heavy chain; also called P1AE4814-003
Kd [1]: 0.1 nM
koff [1]: 4.23e-06 s⁻¹
kon [1]: 34500 M⁻¹ s⁻¹

B8: FAP 4B9 IgG-huIL2v_T133K (P1AE4816) (other)
light: B1 light
heavy 1: B1 heavy 1
heavy 2: EVQLLESGGGLVQPGGSLRLSCAASGFTFSSYAMSWVRQAPGKGLEWVSAIIGSGASTYYADSVKGRFTISRDNSKNTLYLQMNSLRAEDTAVYYCAKGWFGGFNYWGQGTLVTVSSASTKGPSVFPLAPSSKSTSGGTAALGCLVKDYFPEPVTVSWNSGALTSGVHTFPAVLQSSGLYSLSSVVTVPSSSLGTQTYICNVNHKPSNTKVDKKV[human IgG1 Fc with changes not written out]GGGGSGGGGSGGGGSGGGGSGGGGSAPASSSTKKTQLQLEHLLLDLQMILNGINNYKNPKLTRMLTAKFAMPKKATELKHLQCLEEELKPLEEVLNGAQSKNFHLRPRDLISNINVIVLELKGSETTFMCEYADETATIVEFLNRWITFAQSIISTLK
notes: Immunoconjugate: anti-FAP IgG1 PG LALA knob/hole, IL2v variant on the knob heavy chain; also called P1AE4816-003
Kd [1]: 0.003 nM
koff [1]: 1.07e-07 s⁻¹
kon [1]: 33000 M⁻¹ s⁻¹

B9: PD1 0379 IgG-IL2v (P1AD4370) (other)
light: DIQMTQSPSSLSASVGDRVTITCRASESVDTSDNSFIHWYQQKPGKSPKLLIYRSSTLESGVPSRFSGSGSGTDFTLTISSLQPEDFATYYCQQNYDVPWTFGQGTKVEIKRTVAAPSVFIFPPSDEQLKSGTASVVCLLNNFYPREAKVQWKVDNALQSGNSQESVTEQDSKDSTYSLSSTLTLSKADYEKHKVYACEVTHQGLSSPVTKSFNRGEC
heavy 1: EVQLLESGGGLVQPGGSLRLSCAASGFSFSSYTMSWVRQAPGKGLEWVATISGGGRDIYYPDSVKGRFTISRDNSKNTLYLQMNSLRAEDTAVYYCVLLTGRVYFALDSWGQGTLVTVSSASTKGPSVFPLAPSSKSTSGGTAALGCLVKDYFPEPVTVSWNSGALTSGVHTFPAVLQSSGLYSLSSVVTVPSSSLGTQTYICNVNHKPSNTKVDKKVEPKSCDKTHTCPPCPAPEAAGGPSVFLFPPKPKDTLMISRTPEVTCVVVDVSHEDPEVKFNWYVDGVEVHNAKTKPREEQYNSTYRVVSVLTVLHQDWLNGKEYKCKVSNKALGAPIEKTISKAKGQPREPQVCTLPPSRDELTKNQVSLSCAVKGFYPSDIAVEWESNGQPENNYKTTPPVLDSDGSFFLVSKLTVDKSRWQQGNVFSCSVMHEALHNRFTQKSLSLSPGK
heavy 2: EVQLLESGGGLVQPGGSLRLSCAASGFSFSSYTMSWVRQAPGKGLEWVATISGGGRDIYYPDSVKGRFTISRDNSKNTLYLQMNSLRAEDTAVYYCVLLTGRVYFALDSWGQGTLVTVSSASTKGPSVFPLAPSSKSTSGGTAALGCLVKDYFPEPVTVSWNSGALTSGVHTFPAVLQSSGLYSLSSVVTVPSSSLGTQTYICNVNHKPSNTKVDKKV[human IgG1 Fc with changes not written out]GGGGSGGGGSGGGGSAPASSSTKKTQLQLEHLLLDLQMILNGINNYKNPKLTRMLTAKFAMPKKATELKHLQCLEEELKPLEEVLNGAQSKNFHLRPRDLISNINVIVLELKGSETTFMCEYADETATIVEFLNRWITFAQSIISTLT
notes: also called PD1 379 IgG-huIL2v; P1AD4370-002
Kd [2]: 0.1 nM
koff [2]: 2.14e-05 s⁻¹
kon [2]: 202000 M⁻¹ s⁻¹
